Where two headings read alike, the source gives them in different places.
Columns and labels:
Phytophthora infestans = format: in vivo; conditions: for Test F (control value class): 250 ppm spray; for Test F (control value class, late blight on tomato): 250 ppm, sprayed 2.5 ml/pot before inoculation; for Test F control value: 250 ppm sprayed before inoculation
Magnaporthe grisea = format: in vivo; conditions: for Test A (control value class, blast on rice): in vivo
[1] = late blight on tomato, Phytophthora infestans, 5-10 days after inoculation
[2] = rice blast, Magnaporthe grisea, 250 ppm spray
[3] = evaluated 5-10 days after inoculation
[4] = Late blight on tomato, 5-10 days after inoculation

Structure (SMILES) | Test F (control value class) (Phytophthora infestans; [1]) | Test A (control value class) (Magnaporthe grisea; [2]) | further results
CCN1C(=O)CCC(c2cc(F)ccc2F)=C1c1c(F)cccc1F [Compound 477] | H (H shows more than 50% of control values) | H (H shows more than 50% of control values) | –
COc1ccc(Cl)c(-c2cc(Br)c(=O)n(CC(F)(F)F)c2-c2c(F)cccc2F)c1 [Compound 411] | L (L shows 50% or less of control values) | H (H shows more than 50% of control values) | –
CCCCn1c(-c2c(F)cccc2F)c(-c2cc(OC)ccc2Cl)cc(Br)c1=O [Compound 396] | L (L shows 50% or less of control values) | H (H shows more than 50% of control values) | –
CCn1c(-c2c(F)cc(F)cc2F)c(-c2ccc(F)cc2Cl)cc(F)c1=O [Compound 592] | – | – | Test F (control value class, late blight on tomato) (Phytophthora infestans; [3]): L (L shows 50% or less of control values); Test A (control value class, blast on rice) (Magnaporthe grisea): H (H shows more than 50% of control values)
CCN1C(=O)CCC(c2cc(F)cc(F)c2F)=C1c1c(F)cccc1F [Compound 436] | L (L shows 50% or less of control values) | L (L shows 50% or less of control values) | –
Cn1c(-c2c(F)cc(F)cc2F)c(-c2cc(F)ccc2F)cc(Cl)c1=O [Compound 427] | L (L shows 50% or less of control values) | H (H shows more than 50% of control values) | –
CCn1c(-c2c(F)cccc2F)c(-c2cc(F)ccc2F)cc(Br)c1=O [Compound 482] | L (L shows 50% or less of control values) | H (H shows more than 50% of control values) | –
CCn1c(-c2c(F)cc(OC)cc2F)c(-c2cc(F)ccc2Cl)cc(Br)c1=O [Compound 476, 3-bromo-5-(2-chloro-5-fluorophenyl)-6-(2,6-difluoro-4-methoxyphenyl)-1-ethylpyridine-2(1H)-one] | L (L shows 50% or less of control values) | H (H shows more than 50% of control values) | –
Cn1c(-c2c(F)cccc2F)c(-c2c(F)c(F)c(F)c(F)c2F)ccc1=O [Compound 373] | L (L shows 50% or less of control values) | H (H shows more than 50% of control values) | –
Cn1c(-c2c(F)cccc2F)c(-c2ccccc2C(F)(F)F)cc(Br)c1=O [Compound 159] | – | – | Test F control value (Phytophthora infestans; [4]): L (L shows 50% or less of control values); Test A control value (Magnaporthe grisea; Blast on rice): H (H shows more than 50% of control values)
Cc1cc(-c2cc(F)ccc2F)c(-c2c(F)cccc2F)n(C)c1=O [Compound 499] | L (L shows 50% or less of control values) | H (H shows more than 50% of control values) | –
CCn1c(-c2c(F)cc(F)cc2F)c(-c2ccccc2F)cc(C)c1=O [Compound 542] | H (H shows more than 50% of control values) | H (H shows more than 50% of control values) | –
COc1ccc(Cl)c(-c2cc(Cl)c(=O)n(N)c2-c2c(F)cccc2F)c1 [Compound 423] | L (L shows 50% or less of control values) | H (H shows more than 50% of control values) | –
CCn1c(-c2c(F)cc(F)cc2F)c(-c2ccccc2F)cc(Br)c1=O [Compound 532] | L (L shows 50% or less of control values) | H (H shows more than 50% of control values) | –
Cn1c(-c2c(F)cccc2F)c(-c2cc(F)ccc2F)cc(Cl)c1=O [Compound 484] | L (L shows 50% or less of control values) | H (H shows more than 50% of control values) | –
Cn1c(-c2c(F)cccc2F)c(-c2c(F)cccc2Cl)ccc1=O [Compound 398] | L (L shows 50% or less of control values) | H (H shows more than 50% of control values) | –
CCCN1C(=O)CCC(c2cc(OC)ccc2Cl)=C1c1c(F)cccc1F [Compound 389] | L (L shows 50% or less of control values) | H (H shows more than 50% of control values) | –
CCn1c(-c2c(F)cccc2F)c(-c2ccccc2C(F)(F)F)cc(Cl)c1=O [Compound 147] | – | – | Test F control value (Phytophthora infestans; [4]): L (L shows 50% or less of control values); Test A control value (Magnaporthe grisea; Blast on rice): L (L shows 50% or less of control values)
Cn1c(-c2c(F)cccc2F)c(-c2cccc(F)c2Cl)cc(Cl)c1=O [Compound 509] | L (L shows 50% or less of control values) | H (H shows more than 50% of control values) | –

Structure (SMILES) | Test F (control value class) (Phytophthora infestans; [1]) | Test A (control value class) (Magnaporthe grisea; [2]) | further results
COc1cc(F)c(-c2c(-c3ccccc3Cl)cc(Cl)c(=O)n2C)c(F)c1 [Compound 435] | L (L shows 50% or less of control values) | H (H shows more than 50% of control values) | –
O=c1c(Cl)cc(-c2cc(F)cc(F)c2Cl)c(-c2c(F)cccc2F)n1CC(F)F [Compound 556] | L (L shows 50% or less of control values) | H (H shows more than 50% of control values) | –
CN1C(=O)CCC(c2cc(F)ccc2F)=C1c1c(F)cccc1F [Compound 480] | L (L shows 50% or less of control values) | H (H shows more than 50% of control values) | –
CCn1c(-c2c(F)cccc2F)c(-c2cc(F)ccc2F)cc(Cl)c1=O [Compound 481] | L (L shows 50% or less of control values) | H (H shows more than 50% of control values) | –
Cc1cc(-c2cc(F)cc(F)c2F)c(-c2c(F)cccc2F)n(C)c1=O [Compound 457] | L (L shows 50% or less of control values) | H (H shows more than 50% of control values) | –
Cn1c(-c2c(F)cccc2F)c(-c2cc(Cl)ccc2F)cc(Cl)c1=O [Compound 525] | L (L shows 50% or less of control values) | H (H shows more than 50% of control values) | –
CCn1c(-c2c(F)cccc2F)c(-c2ccc(Cl)cc2F)ccc1=O [Compound 408] | L (L shows 50% or less of control values) | H (H shows more than 50% of control values) | –
CCn1c(-c2c(F)cccc2F)c(-c2cccc(F)c2Cl)ccc1=O [Compound 506] | L (L shows 50% or less of control values) | H (H shows more than 50% of control values) | –
Cn1c(-c2c(F)cc(F)cc2F)c(-c2ccccc2F)cc(Cl)c1=O [Compound 543] | L (L shows 50% or less of control values) | H (H shows more than 50% of control values) | –
C#CCn1c(-c2c(F)cccc2F)c(-c2cc(OC)ccc2Cl)cc(Cl)c1=O [Compound 462] | L (L shows 50% or less of control values) | H (H shows more than 50% of control values) | –
CCn1c(-c2c(F)cccc2F)c(-c2cc(F)cc(F)c2F)cc(C)c1=O [Compound 459] | L (L shows 50% or less of control values) | H (H shows more than 50% of control values) | –
O=c1ccc(-c2c(F)c(F)c(F)c(F)c2F)c(-c2c(F)cccc2F)n1CC(F)F [Compound 383] | L (L shows 50% or less of control values) | H (H shows more than 50% of control values) | –
CCOc1cc(F)c(-c2c(-c3cc(F)ccc3Cl)cc(Cl)c(=O)n2CC)c(F)c1 [Compound 547] | L (L shows 50% or less of control values) | H (H shows more than 50% of control values) | –
CCn1c(-c2c(F)cc(F)cc2F)c(-c2cccc(OCC#N)c2Cl)cc(Cl)c1=O [Compound 810] | – | – | Test F (control value class) (Phytophthora infestans; Late blight on tomato, 2.5 ml/pot, evaluated 5-10 days after inoculation): L (L shows 50% or less of control values); Test A (control value class) (Magnaporthe grisea; Blast on rice, control value=100{1-(n/3)}): H (H shows more than 50% of control values)
Cn1c(-c2c(F)cc(F)cc2F)c(-c2ccc(F)cc2Cl)cc(Cl)c1=O [Compound 596] | – | – | Test F (control value class, late blight on tomato) (Phytophthora infestans; [3]): L (L shows 50% or less of control values); Test A (control value class, blast on rice) (Magnaporthe grisea): H (H shows more than 50% of control values)
Cn1c(-c2c(F)cc(F)cc2F)c(-c2cc(F)cc(F)c2F)cc(Cl)c1=O [Compound 467] | L (L shows 50% or less of control values) | H (H shows more than 50% of control values) | –
CN1C(=O)CCC(c2cc(F)cc(F)c2F)=C1c1c(F)cccc1F [Compound 437] | L (L shows 50% or less of control values) | L (L shows 50% or less of control values) | –
CCn1c(-c2c(F)cccc2F)c(-c2cccc(Cl)c2F)ccc1=O [Compound 472] | L (L shows 50% or less of control values) | H (H shows more than 50% of control values) | –
CCn1c(-c2c(F)cccc2F)c(-c2ccccc2C)ccc1=O [Compound 160] | – | – | Test F control value (Phytophthora infestans; [4]): H (H shows more than 50% of control values); Test A control value (Magnaporthe grisea; Blast on rice): H (H shows more than 50% of control values)

From patent US10299477B2 (priority 2015, dated 2019)
